# Test results: PubChem BioAssay AID485294 (National Center for Advancing Translational Sciences (NCATS), 2010)
# In all, about 370,000 compounds went through this assay and about 150 (0.041%) were called active. Inconclusive means that the source gave no clear call. Such entries were picked first, then a sample of the others. The call rests on the fitted dose curve; in most records, active means well fitted inhibition curve with a large enough effect; inconclusive means small, poorly fitted or top-dose-only effect; inactive means flat fitted curve, though single readings scatter. Potencies of inconclusive entries are left out as doubtful fits.
# Biological target: Beta-lactamase (Escherichia coli (strain K12)) (UniProt P00811)
# Test: qHTS Inhibitors of AmpC Beta-Lactamase (assay with detergent); further: nearly all actives have a fitted effect of over 25% in size;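 on activity change, negative = inhibition: 0% = no-compound wells and -100% = no-enzyme wells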
# Conditions: AmpC hydrolysis of nitrocefin, absorbance 480 nm, 0.01% Triton; activity change, negative = inhibition: at 114 µM (top of the series)
# In short: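 20 mM phosphate pH 7.0 + 0.01% (detergent screen) or 0.0001% Triton X-100; 5.3 nM AmpC reagent; cpd preinc 15 min RT; nitrocefin (800 uM stock) to start; A480 q20 s × 4 min; Activity was normalised to no-enzyme and no-compound control wells.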
# Potency means the concentration at half of the fitted maximal effect; tags describe the fitted curve by direction and shape.
# UniProt P00811, sequence (P00811 whole entry, looked up): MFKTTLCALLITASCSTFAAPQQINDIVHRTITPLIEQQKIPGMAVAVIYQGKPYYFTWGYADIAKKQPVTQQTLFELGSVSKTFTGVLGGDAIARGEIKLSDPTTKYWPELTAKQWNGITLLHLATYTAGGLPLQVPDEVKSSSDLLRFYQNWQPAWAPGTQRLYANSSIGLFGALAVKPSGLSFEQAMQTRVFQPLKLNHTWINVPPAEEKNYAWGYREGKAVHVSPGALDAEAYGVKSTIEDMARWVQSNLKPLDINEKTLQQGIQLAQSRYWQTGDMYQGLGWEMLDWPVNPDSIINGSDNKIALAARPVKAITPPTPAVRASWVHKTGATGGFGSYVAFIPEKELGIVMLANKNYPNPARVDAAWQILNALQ
Structure (SMILES),Potency,"activity change, negative = inhibition"
CCN(C(=O)c1cccc(Br)c1)C1CCS(=O)(=O)C1 (stereo unspecified),"inconclusive [inhibitor, full curve]",–
O=C(NC(c1ccc(Cl)cc1)c1c(O)ccc2ccccc12)c1ccccc1 (stereo unspecified),–,inactive: -2.6%
COc1ccc(-c2cc(C(F)(F)F)n3nc(C(=O)NCC45CC6CC(CC(C6)C4)C5)cc3n2)cc1,–,inactive: -1.89%
Cc1ccc(S(=O)(=O)N2CCC(C(=O)Nc3ccccc3N3CCCC3)CC2)c(C)c1,"inconclusive [inhibitor, full curve, poor fit]",–
Cc1ccc(C(=O)CSC2=C(C#N)C(c3ccco3)C3=C(CCCC3=O)N2)cc1 (stereo unspecified),"inconclusive [inhibitor, full curve]",–
CCN(C(=O)COC(=O)CNC(=O)c1ccc(C)c(C)c1)C1CCS(=O)(=O)C1 (stereo unspecified),"inconclusive [inhibitor, full curve, poor fit]",–
CCCOC1CCCN(C(=O)CCc2nnc(CCCCc3ccccc3)o2)C1 (stereo unspecified),–,inactive: 3.05%
Cc1cccc(NC(=O)CN(C)S(=O)(=O)c2cccs2)c1,–,inactive: -2.09%
O=C(CSc1ncccn1)N/N=C/c1cccc(OC2CSC2)c1,–,inactive: 6.09%
COc1ccc(CC(C(=O)Nc2cccc(F)c2)c2nn[nH]n2)c(OC)c1 (stereo unspecified),"inconclusive [inhibitor, full curve, poor fit]",–
Cc1cc(C)c(C#N)c(Oc2ccc(F)cc2)n1,–,inactive: -4.53%
Oc1ccccc1CN1CCC(C(O)(c2ccccc2)c2ccccc2)CC1,–,inactive: -10.8%
COc1ccc(S(=O)(=O)N2CCC(C(=O)Nc3c(F)cccc3F)CC2)cc1,"inconclusive [inhibitor, full curve]",–
C=CCn1c(COc2ccccc2F)nnc1SCC(=O)NC(=O)NCc1ccco1,"inconclusive [inhibitor, partial curve, poor fit]",–
CSCCC1(C(=O)O)NC(c2ccccc2O)C2C(=O)N(C(C)C)C(=O)C21 (stereo unspecified),"inconclusive [inhibitor, full curve]",–
Cc1ccc(N(CCCCN2C(=O)c3ccccc3C2=O)C(=O)c2cccs2)cc1,"inconclusive [inhibitor, full curve, poor fit]",–
CCOc1c2ccc(C(=O)NCc3ccc(C)cc3)cc2nn1CC,"inconclusive [inhibitor, full curve, poor fit]",–
CCc1ccc2oc(C(=O)Nc3nonc3CC)c(C)c2c1,inactive,–
CCc1cc2cc(C)ccc2nc1SCC(=O)N1CC(=O)Nc2ccccc21,–,inactive: 2.37%
CN(C)CCCNC(=O)CC(c1ccc(F)cc1)c1ccco1 (stereo unspecified),"inconclusive [inhibitor, full curve, poor fit]",–
COc1ccc(OC)c(C2CC(=O)N3CN(c4ccc(C)c(Cl)c4)CSC3=C2C#N)c1 (stereo unspecified),"inconclusive [inhibitor, partial curve, poor fit]",–
O=C(c1ccncc1)N(c1ccc2oc3c(c2c1)CCCC3)S(=O)(=O)c1cccc([N+](=O)[O-])c1,"inconclusive [inhibitor, single point]",–
CCN(CC)C(=S)SCC(=O)Nc1ccc(S(N)(=O)=O)cc1,"inconclusive [inhibitor, single point]",–

Structure (SMILES),Potency,"activity change, negative = inhibition"
CC(C)Oc1ccc(Cc2n[nH]c(=S)n2Cc2ccccc2)cc1Cl,"inconclusive [inhibitor, full curve, poor fit]",–
CCOC(=O)C(N)CSC1CC(=O)N(c2ccc(OCC)cc2)C1=O (stereo unspecified),"inconclusive [inhibitor, partial curve, poor fit]",–
O=c1c2ccccc2ncn1Cc1ccco1,"inconclusive [inhibitor, partial curve]",–
COc1ccc(-n2ncc(C(=O)N3CCc4ccccc4C3)c2C2CCN(C(=O)OC(C)(C)C)CC2)cc1,–,inactive: 12.6%
COc1ccccc1NC(=O)C1=C(C)Nc2nc(SCc3ccccc3C)nn2C1CC(C)C (stereo unspecified),–,inactive: -2.55%
COc1ccc(CNC(=O)C(C)n2ccc3cc(S(=O)(=O)N4CCCC4)ccc32)cc1OC (stereo unspecified),–,inactive: 22%
CCn1c(SCC(=O)N2CCN(c3ccccc3F)CC2)nnc1-c1ccoc1C,–,inactive: 0.503%
O=C(CN1C(=O)CC(c2ccccc2)S(=O)(=O)c2ccccc21)N1CCCC1 (stereo unspecified),"inconclusive [inhibitor, partial curve]",–
Cc1ccc(NC(=O)CSc2nc(O)cc(=O)n2-c2ccc(C)cc2)cc1,–,inactive: 10.7%
ONC(=Nc1ccccc1)C(=Nc1ccccc1)NO,"inconclusive [inhibitor, partial curve]",–
CCc1ccccc1S(=O)(=O)Cc1ccc(C(=O)N2CCN(c3ccccn3)CC2)o1,–,inactive: -10.6%
COC(=O)c1cc2sccc2n1Cc1nc(-c2ccc(Cl)cc2)oc1C,inactive,–
CCOC(=O)c1c(-c2cccs2)csc1NC(=O)CN(CC)CC,"inconclusive [inhibitor, full curve]",–
Cc1sc2nc(CSC(C)C(=O)N(C)CC(=O)Nc3ccccc3C(F)(F)F)[nH]c(=O)c2c1C (stereo unspecified),"inconclusive [inhibitor, partial curve, poor fit]",–
CC(=O)Oc1c(/C=C(\C#N)C(N)=O)[nH]c2ccccc12,–,inactive: 8.14%
CN(CC(=O)Nc1cccc(F)c1)C(=O)c1ccc2c(c1)OCCO2,"inconclusive [inhibitor, full curve, poor fit]",–
O=C(Nc1ccc(-c2nc3cc(Cl)ccc3o2)cc1)C1CCCO1 (stereo unspecified),–,inactive: -4.29%
Cc1cc(C)nc(N/N=C/C(Cl)=C/c2ccccc2)n1,–,inactive: -7.11%
Cc1ccc(-n2ncc3c(NCCCn4ccnc4)ncnc32)c(C)c1,"inconclusive [inhibitor, full curve, poor fit]",–
COC(=O)c1ccccc1-n1c(C)nc(=O)c(-c2ccccc2)c1C,"inconclusive [inhibitor, full curve, poor fit]",–
O=C(Nc1cccc(Cl)c1)c1cnc[nH]1,inactive,–
Cn1c(=O)c2c(SCc3ccccn3)nc(C3CC3)nc2n(C)c1=O,"inconclusive [inhibitor, full curve, poor fit]",–
Cc1ccnc(SC2CC(=O)N(c3ccc(F)cc3)C2=O)n1 (stereo unspecified),–,inactive: -0.708%
